# Measured values published in the supplement of paper PMC12217912.
# The other results are listed elsewhere or left out. Sequences were assembled here from the parent chain. Values near 0.05 are background.
# B1: TEV protease; numbered along this chain (parent)
# chain: MGESLFKGPRDYNPISSSICHLTNESDGHTTSLYGIGFGPFIITNKHLFRRNNGTLVVQSLHGVFKVKDTTTLQQHLVDGRDMIIIRMPKDFPPFPQKLKFREPQREERICLVTTNFQTKSMSSMVSDTSCTFPSGDGIFWKHWIQTKDGQCGSPLVSTRDGFIVGIHSASNFTNTNNYFTSVPKNFMELLTNQEAQQWVSGWRLNADSVLWGGHKVFMVKPEEPFQPVKEATQL
# Variants of: B1
# Test: raw area under fraction-flipped curve 0-4 h after induction (AUC4h, not background-subtracted), DNA-recorder readout of cleavage of the substrate (dimensionless); higher = more cleavage of the substrate by the protease variant
# Conditions: temperature: 34 °C; time window: 0-4 h after rhamnose induction
# Method: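 In vivo DNA recorder in E. coli TOP10(DE3) ΔrhaA at 34 °C. Each TEVp single-site mutant (parent TEVp 0) is paired with a single-site variant of the 7-mer TEVs (canonical ENLYFQ|S). The substrate sits between flexible linkers in a Bxb1-sfGFP-TEVs-SsrA fusion, so cleavage stabilises Bxb1 and speeds flipping of a recombination array, read by NGS. The value is the raw area under the fraction-flipped curve over 0-4 h after rhamnose induction (AUC4h), with ≥20 reads per time point. It is not background-subtracted; inactive controls average about 0.047.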
# 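Further: Bxb1 expression induced with 0.2% (w/v) L-rhamnose at OD600 near 0.5, cultures sampled hourly, flipped fraction per protease–substrate barcode pair counted by paired-end Illumina sequencing.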
Variant,area with substrate ENLAFQS,area with substrate ENLDFQS,area with substrate ENLEFQS,area with substrate ENLFFQS,area with substrate ENLGFQS,area with substrate ENLHFQS,area with substrate ENLIFQS,area with substrate ENLKFQS,area with substrate ENLLFQS,area with substrate ENLMFQS,area with substrate ENLNFQS,area with substrate ENLQFQS,area with substrate ENLRFQS,area with substrate ENLSFQS,area with substrate ENLVFQS,area with substrate ENLWFQS,area with substrate ENLCFQS,area with substrate ENLPFQS,area with substrate ENLTFQS
Q151C,0.0702,0.0616,0.0553,0.0858,0.059,0.0688,0.063,0.0801,0.0783,0.0616,0.0696,0.0628,0.0461,0.0698,0.0854,0.0706,,,
H143W,0.0248,0.0631,0.0469,0.0746,,0.0574,0.0661,0.0607,0.0917,0.112,0.0577,0.066,,,,,0.049,0.0525,
H143K,0.0574,,0.0602,0.0611,0.0721,,0.0742,0.0588,0.0776,0.044,0.0589,,0.0536,0.0644,0.0573,0.0694,,0.0749,
D137K,0.0675,0.0603,,,,,0.0944,0.0792,,,0.0638,0.0536,,0.0507,0.0628,,,0.0582,
G166N,0.0606,,0.0494,0.0616,,0.0564,,0.0615,0.0493,0.0721,0.0488,,0.0315,0.0495,,,,0.0611,
G166P,0.0351,0.0505,0.0395,0.0684,0.0576,0.0472,0.06,0.0622,0.0551,,,0.0621,0.0698,0.0498,,,,0.0432,
V126R,0.0649,0.0716,0.0511,0.103,0.0547,0.0737,0.0833,0.0793,,0.0848,0.0629,,0.115,0.062,0.0898,0.0624,,0.0566,
A196H,0.0766,0.065,0.0641,0.0779,0.058,0.0683,0.0833,0.0702,0.0659,0.072,0.0631,,0.0566,0.0532,0.0807,,0.0468,0.0625,
A196M,0.0698,0.0554,0.0665,0.109,0.0486,0.0841,0.114,0.0658,,,0.0645,0.0635,0.0824,,,,0.0782,0.0589,0.078
A196Q,0.0577,0.0557,0.0632,0.0891,,0.0784,0.0939,0.0853,0.0885,,0.0355,0.0699,,0.0637,0.0942,,0.0561,0.073,
T176W,0.0526,0.072,0.0522,0.0562,,0.0552,0.076,0.0523,,0.0538,,,,,0.06,,0.0648,,
S169R,0.0725,0.0714,0.0603,0.0746,,0.0563,0.0833,0.0638,,,0.0627,0.0521,0.0655,0.0623,,0.0468,,0.0559,
P155C,0.0589,0.0605,0.0681,0.083,0.079,0.0607,,0.0718,0.0042,0.0731,0.058,,,0.0653,,,,0.0581,
